# Measured values published in the antibiotic and cytotoxicity screens of Wong et al. (2023).
# The list shows a part of the results.
# What was measured:
# [1] = test system: HSkMC (human skeletal muscle cells); assay: cytotoxicity call (relative viability < 0.9); conditions: 10 µM
# [2] = test system: HepG2; assay: cytotoxicity call (relative viability < 0.9); conditions: 10 µM
# [3] = test system: S. aureus RN4220; assay: growth inhibition call (relative growth <= 0.2); conditions: 50 µM
Compound,cytotoxicity call [1],cytotoxicity call [2],growth inhibition call [3]
Cc1ccccc1S(=O)(=O)N1C[C@H](O)COC[C@H]2O[C@H](CC(=O)NCc3ccccc3Cl)CC[C@@H]21,inactive,inactive,inactive
COc1ccc(S(=O)(=O)N(C)C[C@@H]2OCCCC[C@@H](C)Oc3ccc(NC(=O)Nc4ccccc4)cc3C(=O)N([C@@H](C)CO)C[C@H]2C)cc1,inactive,inactive,inactive
C[C@@H]1CN([C@H](C)CO)C(=O)c2cc(C#CC3CCCCC3)cnc2O[C@H]1CN(C)C(=O)c1ccncc1,inactive,inactive,inactive
C[C@H]1CCCCO[C@@H](CN(C)Cc2ccccc2)[C@@H](C)CN([C@@H](C)CO)C(=O)c2cc(NC(=O)C3CCCCC3)ccc2O1,inactive,inactive,inactive
CNC(=O)C[C@H]1CC[C@H]2[C@@H](COC[C@H](O)CN2C(=O)Nc2ccc3c(c2)OCO3)O1,inactive,inactive,inactive
C=CCNC(=O)[C@H]1[C@@H]2C(=O)O[C@@H](c3ccccc3)[C@@H](c3ccccc3)N2[C@@H](c2ccc(OCCO)cc2)[C@]12C(=O)N(C(=O)OCCOC)c1ccc(C#Cc3ccc(OC)cc3)cc12,inactive,inactive,inactive
C[C@@H](CC(=O)O)n1ccnc1,inactive,inactive,inactive
Cl.Clc1ccccc1CN1CCc2sccc2C1,inactive,inactive,inactive
O=c1c2cc(O)c(O)cc2oc2cc(O)c([C@H]3O[C@H](CO)[C@H](O)[C@@H](O)[C@H]3O)c(O)c12,inactive,inactive,inactive
O=c1c(O)c(-c2ccccc2)oc2cc(O)ccc12,inactive,inactive,inactive
C[C@@H]1CCCCO[C@H](CN(C)C(=O)Nc2ccccc2)[C@H](C)CN([C@@H](C)CO)C(=O)c2cc(NC(=O)Nc3cccc4ccccc34)ccc2O1,inactive,inactive,inactive
CCCNC(=O)N[C@H]1C=C[C@H](CC(=O)N2CCN(C)CC2)O[C@@H]1CO,inactive,inactive,inactive
CCNC(=O)NS(=O)(=O)c1sc(CC(C)C)cc1-c1ccc(Cn2c(-c3ccccc3)nc(OC)c2C=O)cc1,inactive,inactive,inactive
C[C@@H]1CN([C@@H](C)CO)C(=O)c2cc(NC(=O)Nc3ccc(F)cc3)ccc2O[C@@H](C)CCCCO[C@@H]1CN(C)Cc1ccc2c(c1)OCO2,inactive,active,inactive
COc1ccc(NC(=O)N(C)C[C@@H]2OCCCC[C@@H](C)Oc3ccc(NC(=O)Nc4cccc5ccccc45)cc3C(=O)N([C@@H](C)CO)C[C@H]2C)cc1,inactive,inactive,inactive
CO[C@H]1CN(C)C(=O)c2cc(NS(=O)(=O)c3cn(C)cn3)ccc2OC[C@@H](C)N(Cc2cccc(F)c2)C[C@@H]1C,inactive,inactive,inactive
C[C@@H]1CN([C@H](C)CO)C(=O)c2cc(NC(=O)CCC(F)(F)F)ccc2O[C@H]1CN(C)Cc1ccc(Cl)c(Cl)c1,inactive,inactive,inactive
CC(C)NC(=O)N(C)C[C@@H]1Oc2ccc(NC(=O)C3CCCCC3)cc2CC(=O)N([C@H](C)CO)C[C@@H]1C,inactive,inactive,inactive
C[C@H]1CN([C@@H](C)CO)C(=O)c2cccc(NS(=O)(=O)c3ccc(F)cc3)c2O[C@@H]1CN(C)S(=O)(=O)c1cccs1,inactive,inactive,inactive
O=C(O)CNC(=O)c1[nH]nc2ccccc12,inactive,inactive,inactive
C[C@@H]1CN([C@@H](C)CO)C(=O)Cc2cc(NC(=O)Cn3cnnn3)ccc2O[C@H]1CN(C)Cc1ccc(C(F)(F)F)cc1,inactive,inactive,inactive
C[C@@H]1CN([C@H](C)CO)C(=O)c2cc(NC(=O)c3ccncc3)ccc2O[C@@H](C)CCCCO[C@@H]1CN(C)CC1CCCCC1,inactive,inactive,inactive
Cc1ccc(S(=O)(=O)Nc2ccc3c(c2)CC(=O)N([C@H](C)CO)C[C@H](C)[C@@H](CN(C)CC2CC2)O3)cc1,inactive,inactive,inactive
O=C(O)c1ccnc2nc[nH]c12,inactive,inactive,inactive
C[C@@H]1CN([C@H](C)CO)C(=O)c2cccc(NC(=O)Nc3cccc4ccccc34)c2O[C@@H]1CN(C)Cc1ccc2c(c1)OCO2,inactive,inactive,inactive
Cc1cc(C(=O)Nc2cccc3c2O[C@H](CN(C)C(=O)NC(C)C)[C@H](C)CN([C@@H](C)CO)C3=O)n(C)n1,inactive,inactive,inactive
CC(C)CC#Cc1ccc2c(c1)O[C@H](CN(C)S(=O)(=O)c1ccc(F)cc1)[C@@H](C)CN([C@H](C)CO)S2(=O)=O,inactive,inactive,inactive
O=C(C[C@@H]1CC=CCC[C@@H](Cc2ccc(F)cc2)C(=O)OC[C@@H](Cc2c[nH]c3ccccc23)NC1=O)N[C@H](CO)Cc1ccccc1,active,active,inactive

Compound,cytotoxicity call [1],cytotoxicity call [2],growth inhibition call [3]
O=C(C[C@@H]1C[C@H]2c3cc(NS(=O)(=O)c4ccc(F)cc4)ccc3O[C@H]2[C@H](CO)O1)N1CCOCC1,inactive,inactive,inactive
CN(C)C(=O)c1cccc(-c2cccc(-c3nc(C(=O)N4CCCCC4)cc4c3[C@@H](CCO)N([S@](=O)C(C)(C)C)C4)c2)c1,inactive,inactive,inactive
C[C@H](CO)N1C[C@H](C)[C@@H](CN(C)CC2CCCCC2)Oc2ccc(NC(=O)Nc3cccc4ccccc34)cc2C1=O,inactive,inactive,inactive
C[C@H]1CN([C@@H](C)CO)C(=O)c2cc(NC(=O)CCC(F)(F)F)ccc2O[C@@H]1CN(C)S(C)(=O)=O,inactive,inactive,inactive
C(=N\n1cnnc1)/c1ccco1,inactive,inactive,inactive
COc1ccccc1-c1ccc2c(c1)O[C@H](CN(C)S(=O)(=O)c1ccccc1)[C@H](C)CN([C@@H](C)CO)S2(=O)=O,inactive,inactive,inactive
OCCN(CCO)c1nc(N2CCCCC2)c2nc(N(CCO)CCO)nc(N3CCCCC3)c2n1,inactive,inactive,inactive
C[C@H](CO)N1C[C@H](C)[C@@H](CN(C)Cc2ccc(Cl)c(Cl)c2)Oc2ccc(NC(=O)Nc3ccc(F)cc3)cc2CC1=O,active,active,inactive
COc1ccc(S(=O)(=O)N(C)C[C@H]2Oc3ccc(NC(=O)C4CC4)cc3C(=O)N([C@H](C)CO)C[C@@H]2C)cc1,inactive,inactive,inactive
Cc1noc(C)c1S(=O)(=O)Nc1ccc2c(c1)CC(=O)N([C@H](C)CO)C[C@H](C)[C@H](CN(C)S(=O)(=O)c1ccc(Cl)cc1)O2,inactive,inactive,inactive
C[C@H](CO)N1C[C@H](C)[C@@H](CN(C)Cc2ccc(Oc3ccccc3)cc2)Oc2ccc(NC(=O)c3ccncc3)cc2CC1=O,inactive,inactive,inactive
O=S1(=O)C[C@H](NCc2cccnc2)[C@@H](O)C1,inactive,inactive,inactive
C[C@H]1CCCCO[C@@H](CN(C)C(=O)Nc2ccccc2)[C@@H](C)CN([C@@H](C)CO)C(=O)c2cc(NC(=O)Nc3ccc4c(c3)OCO4)ccc2O1,inactive,inactive,inactive
Cc1noc(C)c1S(=O)(=O)Nc1cccc2c1O[C@H](CN(C)Cc1ccc3c(c1)OCO3)[C@H](C)CN([C@H](C)CO)C2=O,inactive,inactive,inactive
C[C@H](CO)N1C[C@H](C)[C@H](CN(C)Cc2ccccn2)Oc2ncc(C#Cc3cccc(F)c3)cc2C1=O,inactive,inactive,inactive
C[C@H]1CN([C@@H](C)CO)C(=O)c2cc(NC(=O)CCC(F)(F)F)ccc2O[C@H]1CN(C)S(=O)(=O)c1cn(C)cn1,inactive,inactive,inactive
C[C@@H]1CN([C@H](C)CO)C(=O)c2cc(NC(=O)Cc3cn(C)c4ccccc34)ccc2O[C@@H]1CN(C)Cc1ccc(Cl)c(Cl)c1,active,active,inactive
Cc1ccc(S(=O)(=O)Nc2cccc3c2O[C@H](CN(C)S(=O)(=O)c2cn(C)cn2)[C@@H](C)CN([C@@H](C)CO)C3=O)cc1,inactive,inactive,inactive
Cc1ccc(S(=O)(=O)Nc2ccc3c(c2)C(=O)N([C@@H](C)CO)C[C@@H](C)[C@H](CN(C)C(=O)Nc2ccc(C(F)(F)F)cc2)OCCCC[C@@H](C)O3)cc1,inactive,inactive,inactive
C[C@@H]1CCCCO[C@H](CN(C)Cc2ccc(C(F)(F)F)cc2)[C@H](C)CN([C@H](C)CO)C(=O)c2cc(NC(=O)Nc3cccc4ccccc34)ccc2O1,inactive,inactive,inactive
COCC(=O)N(C)C[C@H]1Oc2cc(-c3ccc(OC)cc3)ccc2S(=O)(=O)N([C@H](C)CO)C[C@@H]1C,inactive,inactive,inactive
C[C@H]1CN([C@@H](C)CO)C(=O)c2cccc(NS(=O)(=O)c3ccc(Cl)cc3)c2O[C@@H]1CN(C)C(=O)Nc1ccc(C(F)(F)F)cc1,inactive,inactive,inactive
O=C(C[C@H]1C=C[C@@H](NC(=O)CN2CCOCC2)[C@H](CO)O1)NC1CCC1,inactive,inactive,inactive
COc1ccc(CN(C)C[C@@H]2OCCCC[C@@H](C)Oc3ccc(NC(=O)Cc4ccccc4)cc3C(=O)N([C@H](C)CO)C[C@@H]2C)cc1,inactive,inactive,inactive
O=C(O)[C@@H]1CCCC[C@@H]1C(=O)N1CCc2ccccc2[C@H]1CN1C(=O)c2ccccc2C1=O.O=C(O)[C@H]1CCCC[C@@H]1C(=O)N1CCc2ccccc2[C@H]1CN1C(=O)c2ccccc2C1=O,inactive,inactive,inactive
C[C@@H]1CN([C@@H](C)CO)S(=O)(=O)c2ccc(-c3cncnc3)cc2O[C@@H]1CN(C)C(=O)NC1CCCC1,inactive,inactive,inactive
C[C@H]1CN([C@@H](C)CO)C(=O)CCCn2cc(nn2)CO[C@@H]1CN(C)S(C)(=O)=O,inactive,inactive,inactive
